Changes are numbered by the printed parent chain; changes in the protein carry UniProt numbers. This is one part of the list.
B1: UUGAGGG (DNA:RNA)
RNA: GGGAGACCGGAAUUCAGAUUGUCCUUGAGGGUUAAAUCCCGUCGUAGCCACCA
DNA 1: CAATCTGAATTCCGGTCTCCC
DNA 2: TGGTGGCTACGACGGGATT
B2: AAAUGUA (DNA:RNA)
RNA: B1 RNA with U25A, U26A, G27A, A28U, G30U, G31A
DNA 1: CAATCTGAATTCCGGTCTCCC
DNA 2: TGGTGGCTACGACGGGATT
B3: CCGUCAG (DNA:RNA)
RNA: B1 RNA with U25C, U26C, A28U, G29C, G30A
DNA 1: CAATCTGAATTCCGGTCTCCC
DNA 2: TGGTGGCTACGACGGGATT
B4: GAGCCUG (DNA:RNA)
RNA: B1 RNA with U25G, U26A, A28C, G29C, G30U
DNA 1: CAATCTGAATTCCGGTCTCCC
DNA 2: TGGTGGCTACGACGGGATT
B5: AGCGGAA (DNA:RNA)
RNA: B1 RNA with U25A, U26G, G27C, A28G, G30A, G31A
DNA 1: CAATCTGAATTCCGGTCTCCC
DNA 2: TGGTGGCTACGACGGGATT
B6: GAAGGAC (DNA:RNA)
RNA: B1 RNA with U25G, U26A, G27A, A28G, G30A, G31C
DNA 1: CAATCTGAATTCCGGTCTCCC
DNA 2: TGGTGGCTACGACGGGATT
B7: GGUAGCG (DNA:RNA)
RNA: B1 RNA with U25G, U26G, G27U, G30C
DNA 1: CAATCTGAATTCCGGTCTCCC
DNA 2: TGGTGGCTACGACGGGATT
B8: CGGGCGG (DNA:RNA)
RNA: B1 RNA with U25C, U26G, A28G, G29C
DNA 1: CAATCTGAATTCCGGTCTCCC
DNA 2: TGGTGGCTACGACGGGATT
B9: UAUAGUC (DNA:RNA)
RNA: B1 RNA with U26A, G27U, G30U, G31C
DNA 1: CAATCTGAATTCCGGTCTCCC
DNA 2: TGGTGGCTACGACGGGATT

What follows are binders tested against T1, RBFOX1 RRM (Homo sapiens, UniProt Q9NWB1 109-208) (assay: EMSA; HiTS-Eq, 1 nM pool, 10 min; buffer printed only for the single-RNA assays: 10 mM Tris pH 7.5, 150 mM NaCl, 3.4 mM EDTA, 0.001% NP-40, 30 C). Conditions: tags: His6 N-terminal (pET28a); label: 5' 32P.
T1 sequence: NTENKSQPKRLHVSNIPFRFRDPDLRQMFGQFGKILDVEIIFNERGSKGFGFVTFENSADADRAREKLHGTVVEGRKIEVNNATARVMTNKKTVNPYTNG
In short: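 Purified RbFox RRM, wild type or mutant, was incubated for 10 min in 50 µL with 1 nM of a 5′-radiolabelled RNA pool carrying 7 randomized nucleotides, whose flanks were annealed to DNA oligonucleotides, over a series of increasing protein concentrations. Unbound RNA was resolved on 8% native PAGE, cut out, reverse-transcribed, barcoded by PCR and sequenced on an Illumina HiSeq 2500. Relative association constants were derived from changes in read counts for each RNA species versus the control reaction and normalised to the cognate motif.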
With B1 the binding signal was 0.00788 KA relative to UGCAUGU. With B2 the binding signal was 0.00248 KA relative to UGCAUGU. In the case of B3, the binding signal is reported as 0.00788 KA relative to UGCAUGU. B4 was tested, and the binding signal was 0.0276 KA relative to UGCAUGU. With B5 the binding signal was 0.00977 KA relative to UGCAUGU. For B6, the binding signal was 0.00264 KA relative to UGCAUGU. B7 was tested, and the binding signal was 0.0072 KA relative to UGCAUGU. In the case of B8, the binding signal is reported as 0.0199 KA relative to UGCAUGU. For B9, the binding signal was 0.0098 KA relative to UGCAUGU.

— article PMC9911399, “Two distinct binding modes provide the RNA-binding protein RbFox with extraordinary sequence specificity”
